Consider 44 compounds from PMC4336329 (PLoS ONE, 2015).

About 14,000 (4.5%) of roughly 310,000 compounds showed an effect of 50% or more. The effect is printed as a negative number. The list shows a part of the results.
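Further: peak tail current of the secondary pulse compared with the same well before compound.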

In this experiment the target is human ether-à-go-go-related gene (hERG) potassium channel (human, UniProt Q12809). Briefly: primary screen, population patch clamp on CHO cells stably expressing hERG.
Chain of human ether-à-go-go-related gene (hERG) potassium channel (Q12809 whole entry, looked up): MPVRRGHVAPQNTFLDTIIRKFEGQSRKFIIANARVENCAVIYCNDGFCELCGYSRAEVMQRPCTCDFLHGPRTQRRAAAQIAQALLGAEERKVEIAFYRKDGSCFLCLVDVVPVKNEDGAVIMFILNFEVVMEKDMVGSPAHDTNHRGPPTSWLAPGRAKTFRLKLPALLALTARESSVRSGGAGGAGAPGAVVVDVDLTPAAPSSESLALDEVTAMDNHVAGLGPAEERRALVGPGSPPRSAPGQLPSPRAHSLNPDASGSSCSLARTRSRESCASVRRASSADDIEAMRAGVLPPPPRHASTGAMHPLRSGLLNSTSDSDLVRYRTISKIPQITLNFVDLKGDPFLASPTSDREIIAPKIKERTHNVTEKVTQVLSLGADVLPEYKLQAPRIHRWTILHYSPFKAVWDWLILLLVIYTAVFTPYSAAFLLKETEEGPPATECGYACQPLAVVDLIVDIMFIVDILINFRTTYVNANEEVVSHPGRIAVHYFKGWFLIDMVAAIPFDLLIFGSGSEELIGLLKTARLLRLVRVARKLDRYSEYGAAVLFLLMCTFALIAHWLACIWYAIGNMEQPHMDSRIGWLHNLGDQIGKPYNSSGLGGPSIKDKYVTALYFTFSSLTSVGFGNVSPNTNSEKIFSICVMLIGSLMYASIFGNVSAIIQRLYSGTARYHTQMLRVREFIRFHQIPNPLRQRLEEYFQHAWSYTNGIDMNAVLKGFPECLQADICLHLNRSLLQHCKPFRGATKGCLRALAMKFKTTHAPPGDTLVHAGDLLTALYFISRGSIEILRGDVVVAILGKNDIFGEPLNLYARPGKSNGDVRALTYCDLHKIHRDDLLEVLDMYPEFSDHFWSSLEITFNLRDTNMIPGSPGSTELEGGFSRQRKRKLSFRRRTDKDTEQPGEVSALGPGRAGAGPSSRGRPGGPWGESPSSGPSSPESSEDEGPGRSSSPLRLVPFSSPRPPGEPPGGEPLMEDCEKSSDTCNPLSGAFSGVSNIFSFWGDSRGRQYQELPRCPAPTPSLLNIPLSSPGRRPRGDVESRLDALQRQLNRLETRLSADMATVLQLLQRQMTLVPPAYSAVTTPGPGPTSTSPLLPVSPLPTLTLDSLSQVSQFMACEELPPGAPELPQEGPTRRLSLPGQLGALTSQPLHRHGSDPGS
As for `Cc1ccc2c(c1)nnn2C1CCN(S(=O)(=O)c2ccc(C(=O)N(C)C3CCCCC3)cc2)CC1`, the “hERG current change (%, negative = inhibition) at 10uM” value amounted to 11.9%.

Regarding `Cc1ccc(NC(=S)NCc2ccc3c(c2)OCO3)c(C)c1`, the “hERG current change (%, negative = inhibition) at 10uM” value is on record as 3.32%.

`Cc1cccnc1NC(=O)Nc1cccc(C(F)(F)F)c1`: the “hERG current change (%, negative = inhibition) at 10uM” value was -7.78%.

As for `O=C(CCN1C(=O)c2cccc3cccc(c23)C1=O)NCc1ccco1`, the “hERG current change (%, negative = inhibition) at 10uM” value is on record as -26.5%.

Regarding `Cc1ccc(-n2nc3c(c2NC(=O)C(C)(C)C)CSC3)c(C)c1`, the “hERG current change (%, negative = inhibition) at 10uM” value is recorded as 9.34%.

Regarding `Cc1ccc(NS(=O)(=O)c2ccc(C)c(C(=O)N3CCN(C)CC3)c2)cc1.Cl`, the “hERG current change (%, negative = inhibition) at 10uM” value is on record as -14.8%.

In the case of `Cc1ccccc1NC(=O)N1CCN(C(=O)c2ccco2)CC1`, the “hERG current change (%, negative = inhibition) at 10uM” value worked out at 3.42%.

`Br.N=C(N)SCc1cn2ccccc2n1`: the “hERG current change (%, negative = inhibition) at 10uM” value was found to be 1.14%.

As to `COC(CNC(=O)c1ccc(CS(=O)(=O)c2c(Cl)cccc2Cl)o1)OC`, the “hERG current change (%, negative = inhibition) at 10uM” value was 21.2%.

Take `Cc1c(NC(=O)c2ccccc2)cccc1[N+](=O)[O-]`: the “hERG current change (%, negative = inhibition) at 10uM” value was -0.956%.

On to `COc1nc(N(C)C)nc(N2CC(=O)N(CCNS(=O)(=O)c3ccc(C)cc3)C2=N)n1`, for which the “hERG current change (%, negative = inhibition) at 10uM” value was 9.78%.

Turning to `Cc1ccc(CNC(=O)c2c(-c3ccccc3)noc2C)cc1`, the “hERG current change (%, negative = inhibition) at 10uM” value is listed as 20.3%.

Turning to `COC(=O)CSc1nnc(CNC(=O)c2ccccc2F)n1-c1ccc(F)cc1`, the “hERG current change (%, negative = inhibition) at 10uM” value came to 11.9%.

For the compound `CCOc1ccc(NC(=O)C2CCN(c3nnnn3-c3ccccc3)CC2)cc1`, the “hERG current change (%, negative = inhibition) at 10uM” value is on record as -40.7%.

On to `Cc1cccc(OCCCC(=O)O)c1C`, for which the “hERG current change (%, negative = inhibition) at 10uM” value came out at 6.81%.

Consider `O=C1CCN(Cc2cccnc2)CCN1[C@H](CO)c1ccccc1`, for which the “hERG current change (%, negative = inhibition) at 10uM” value stood at 16%.

For the compound `O=C(NNC(=O)c1ccc(F)cc1)C(=O)N1CCCCC1`, the “hERG current change (%, negative = inhibition) at 10uM” value is on record as -3.24%.

On to `C=CCOc1nc2c(c(=O)n(C)c(=O)n2C)n1C`, for which the “hERG current change (%, negative = inhibition) at 10uM” value is listed as -7.37%.

As for `Cc1cc(=O)oc2c(CN3CCC(C)CC3)c(O)c(Cl)cc12`, the “hERG current change (%, negative = inhibition) at 10uM” value was found to be 4.55%.

As to `CCOC(=O)CC(NC(=O)c1ccccc1F)c1ccc(C)cc1` (centres unmarked), the “hERG current change (%, negative = inhibition) at 10uM” value was -16.7%.

As for `OC(CNCCc1ccc(C(F)(F)F)cc1)COc1cccc2ccccc12` (centres unmarked), the “hERG current change (%, negative = inhibition) at 10uM” value is -36.5%.

As for `O=C(Nc1ccc(OCC(=O)N2CCOCC2)cc1)Nc1cccc2ccccc12`, the “hERG current change (%, negative = inhibition) at 10uM” value is recorded as 10%.

As for `O=C(CSc1nncn1-c1ccccc1)Nc1cc(Cl)cc(Cl)c1`, the “hERG current change (%, negative = inhibition) at 10uM” value is reported as 2.01%.

For the compound `c1ccc(-c2cn(-c3ccccc3)c3ncnc(N4CCCCC4)c23)cc1`, the “hERG current change (%, negative = inhibition) at 10uM” value is given as 6.2%.

Regarding `CC1(C)Cc2c(sc3nc[nH]c(=O)c23)CO1`, the “hERG current change (%, negative = inhibition) at 10uM” value worked out at 10.9%.

For the compound `CC1(C)C2CC[C@]3(C)C(CC=C4[C@@H]5C[C@@](C)(CO)CC[C@]5(C(=O)O)CC[C@]43C)[C@@]2(C)CC[C@@H]1O` (some centres unmarked), the “hERG current change (%, negative = inhibition) at 10uM” value amounted to 16.8%.

Take `Cc1ccc(CNC(=O)c2ccc(N3CCC4(CC3)CC(c3cccc(Br)c3)=NO4)c(N)c2)cc1`: the “hERG current change (%, negative = inhibition) at 10uM” value is given as 12.4%.

Regarding `O=C(OCc1cc2ccccc2[nH]c1=O)C1CCCO1` (centres unmarked), the “hERG current change (%, negative = inhibition) at 10uM” value is on record as 14.8%.

For `N#Cc1ccc(C(=O)OCC(=O)NC2CCCC2)cc1`, the “hERG current change (%, negative = inhibition) at 10uM” value came to 0.0657%.

In the case of `COc1ccc(NC(=O)c2cc(S(=O)(=O)N3CCCCC3)ccc2N2CCCCC2)cn1`, the “hERG current change (%, negative = inhibition) at 10uM” value is recorded as -8.6%.

As for `COc1ccc(C(=O)Oc2ccc(/C=N/NC(=O)Cc3ccc([N+](=O)[O-])cc3)cc2)cc1`, the “hERG current change (%, negative = inhibition) at 10uM” value was 5.4%.

Turning to `COc1ccc(-c2cc(-c3c(O)c(OC)c4occc4c3OC)[nH]n2)cc1OC`, the “hERG current change (%, negative = inhibition) at 10uM” value is on record as -2.3%.

For `COc1ccccc1NC(=O)NCCN1C(=O)C2C3C=CC(C3)C2C1=O` (centres unmarked), the “hERG current change (%, negative = inhibition) at 10uM” value is 3.52%.

As for `COc1ccc(OC)c(CCNC(=O)CCn2ccc3cc(S(=O)(=O)N4CCCC4)ccc32)c1`, the “hERG current change (%, negative = inhibition) at 10uM” value is listed as -28.7%.

Turning to `Cc1ccc2nc(N(CCN(C)C)C(=O)c3ccc4c(c3)OCCO4)sc2c1.Cl`, the “hERG current change (%, negative = inhibition) at 10uM” value is listed as -44.6%.

For `CCCCCCCCC(=O)N1CCN(c2cc3c(cc2F)c(=O)c(C(=O)O)cn3CC)CC1`, the “hERG current change (%, negative = inhibition) at 10uM” value was -34.5%.

Turning to `CN1CCN(C(=O)c2cccc(S(=O)(=O)N3CCCCC3)c2)CC1`, the “hERG current change (%, negative = inhibition) at 10uM” value is -7.44%.

In the case of `COc1cc2c(cc1OC)CN(CC(=O)NC(=O)NC1CCCCC1)CC2`, the “hERG current change (%, negative = inhibition) at 10uM” value is reported as 3.28%.

Regarding `O=C(CSC1=NC(=O)C(Cc2ccccc2)C(=O)N1)Nc1ncc(Br)cc1Br` (centres unmarked), the “hERG current change (%, negative = inhibition) at 10uM” value was 12.6%.

With `COc1ccccc1C(CNC(=O)c1cccc(S(=O)(=O)Nc2ccc(C)cc2)c1)N(C)C` (centres unmarked), the “hERG current change (%, negative = inhibition) at 10uM” value is recorded as -8.39%.

`Cc1ccnc(SCC(N)=O)n1`: the “hERG current change (%, negative = inhibition) at 10uM” value came out at 4.29%.

Consider `O=C(CN(c1cc(Cl)ccc1Cl)S(=O)(=O)c1ccccc1)N1CCOCC1`, for which the “hERG current change (%, negative = inhibition) at 10uM” value was -21.5%.

As for `Cc1cc(C(=O)N2CCC3(CC2)OCCO3)cs1`, the “hERG current change (%, negative = inhibition) at 10uM” value was 3.66%.

For `COc1ccccc1NC(=O)c1cccc2c(Br)cccc12`, the “hERG current change (%, negative = inhibition) at 10uM” value worked out at 6.03%.
